The whole screen tested about 390,000 compounds, of which about 17,000 (4.4%) were called active. The shares of active, inactive and inconclusive entries below differ from those in the screen. Calls come from the whole dose curve; as a rule, active = well fitted inhibition curve with a large enough effect; inconclusive = small, poorly fitted or top-dose-only effect; inactive = no such curve, though single readings can be large or run the other way. A potency beside an inconclusive call is a rough fit, not a confirmed value.
The molecules below were run against Lysine-specific demethylase 4A (Homo sapiens) (UniProt O75164) (assay: qHTS Assay for Inhibitors of JMJD2A-Tudor Domain). Details: AlphaScreen JMJD2A-Tudor / H3K4me3 peptide binding; series mostly up to 114 µM.
Sequence of UniProt O75164 (O75164 whole entry, looked up, the tested form may be a part): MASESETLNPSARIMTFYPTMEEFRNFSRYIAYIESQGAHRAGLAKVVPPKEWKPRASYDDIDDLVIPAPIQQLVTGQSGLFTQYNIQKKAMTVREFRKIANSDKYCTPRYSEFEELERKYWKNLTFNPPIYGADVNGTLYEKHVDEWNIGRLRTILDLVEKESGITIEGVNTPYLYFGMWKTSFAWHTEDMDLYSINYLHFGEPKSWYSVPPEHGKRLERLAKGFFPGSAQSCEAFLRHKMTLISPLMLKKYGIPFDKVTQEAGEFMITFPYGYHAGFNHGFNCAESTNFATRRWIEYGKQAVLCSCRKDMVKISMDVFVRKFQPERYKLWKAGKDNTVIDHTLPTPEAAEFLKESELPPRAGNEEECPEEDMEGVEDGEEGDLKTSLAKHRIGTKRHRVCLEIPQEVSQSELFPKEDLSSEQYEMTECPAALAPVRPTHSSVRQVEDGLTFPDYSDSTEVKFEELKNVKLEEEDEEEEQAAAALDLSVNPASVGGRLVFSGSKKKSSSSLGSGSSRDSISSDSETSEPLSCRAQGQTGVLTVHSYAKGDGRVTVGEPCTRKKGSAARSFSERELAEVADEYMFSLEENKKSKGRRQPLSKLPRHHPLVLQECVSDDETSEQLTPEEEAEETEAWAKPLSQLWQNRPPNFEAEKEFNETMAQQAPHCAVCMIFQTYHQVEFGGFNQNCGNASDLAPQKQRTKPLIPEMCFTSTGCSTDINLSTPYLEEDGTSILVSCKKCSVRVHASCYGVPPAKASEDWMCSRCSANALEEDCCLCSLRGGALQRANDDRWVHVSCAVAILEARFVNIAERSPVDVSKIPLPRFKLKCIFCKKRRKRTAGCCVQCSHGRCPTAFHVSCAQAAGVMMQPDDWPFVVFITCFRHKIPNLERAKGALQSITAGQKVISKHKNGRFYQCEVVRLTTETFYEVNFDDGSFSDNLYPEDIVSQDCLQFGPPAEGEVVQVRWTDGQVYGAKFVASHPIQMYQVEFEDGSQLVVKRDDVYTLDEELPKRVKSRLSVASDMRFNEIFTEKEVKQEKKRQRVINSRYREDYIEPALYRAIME
`CCC1=NN2C(=N)/C(=C\c3cccn3-c3ccc(Br)cc3)C(=O)N=C2S1` was tested, and the Potency was inconclusive: 56.2 µM [inhibitor, partial curve]. `O=C(CCl)Nc1ccc(N=Nc2ccccc2)cc1` was tested, and the Potency was inconclusive: 44.7 µM [inhibitor, partial curve]. `CSc1ccc(C2c3[nH]c4ccccc4c3CCN2C(=O)CCC2CCCC2)cc1` (centres undefined) was tested, and the Potency was inconclusive: 50.1 µM [inhibitor, partial curve]. For `COC(=O)c1c(-c2cccs2)csc1NC(=O)c1ccc(C(C)(C)C)cc1`, the Potency was inconclusive: 70.8 µM [inhibitor, partial curve]. In the case of `CC(C)(C)OC(=O)N1CCCC(C(=O)Nc2cccc(C(=O)NCCCc3ccccc3)c2)C1` (centres undefined), the Potency is reported as “inactive”. With `CC(C)(C)CC(C)(C)NC(=S)Nc1ccc2nc(-c3ccccn3)c(-c3ccccn3)nc2c1` the Potency was inconclusive: 22.4 µM [inhibitor, full curve, poor fit]. `COc1ccc2c(CNCc3ccco3)c(C(=O)O)n(Cc3ccccc3)c2c1` was tested, and the Potency was inconclusive: 56.2 µM [inhibitor, partial curve]. In the case of `Cc1c([N+](=O)[O-])cc(N2C(=O)C=CC2=O)cc1[N+](=O)[O-]`, the Potency is reported as active: 22.4 µM. With `COc1ccc(/C=C2\CCC(C3CCCC3)C2=O)cc1` (centres undefined) the Potency was “inactive”. In the case of `NC(=S)N/N=C1\c2ccccc2-c2c(C(=O)O)cccc21`, the Potency is reported as “inactive”. With `O=C(O)c1cccnc1Sc1ncnc2sc3c(c12)CCC3` the Potency was active: 31.6 µM. With `COc1cc2c3nc4n(c(=O)c3n(CC(=O)N3CCCC3)c2cc1OC)CCS4` the Potency was “inactive”. For `O=C(NCC1CCCO1)c1ccc2c(c1)N(Cc1ccccc1)C(=O)CS2` (centres undefined), the Potency was inconclusive: 25.1 µM [inhibitor, full curve, poor fit]. For `COc1cccc(NC(=O)Nc2cnccn2)c1`, the Potency was “inactive”. With `COc1ccc(Nc2nc(N)c([N+](=O)[O-])c(N3CCOCC3)n2)cc1` the Potency was inconclusive: 89.1 µM [inhibitor, partial curve]. With `COc1ccccc1CNC(=O)C(=O)NCC(c1cccnc1)N1CCN(c2ccc(F)cc2)CC1` (centres undefined) the Potency was inconclusive: 79.4 µM [inhibitor, partial curve]. For `COc1cc(OC)cc(C(=O)Nc2c(C)nn(-c3ccccc3)c2C)c1`, the Potency was inconclusive: 44.7 µM [inhibitor, partial curve, poor fit]. With `Nc1nc(Nc2ccccc2F)nc(N2CCCC2)c1[N+](=O)[O-]` the Potency was inconclusive: 12.6 µM [inhibitor, partial curve, poor fit]. In the case of `CCc1ccccc1NC(=O)CC(NCc1ccccc1)C(=O)O` (centres undefined), the Potency is reported as inconclusive: 3.16 µM [inhibitor, full curve, poor fit].

— PubChem BioAssay AID504339 (National Center for Advancing Translational Sciences (NCATS), 2011)
Note: nearly all actives have a fitted effect of over 50% in size.
Potency is the fitted concentration of half-maximal effect; tags give direction and shape of the fitted curve.
